# PubChem BioAssay AID463173 (ICCB-Longwood Screening Facility, Harvard Medical School, 2010)
# Among all 52,000 compounds or so, about 1,700 (3.3%) were called active. Cut-off read from the data, not from the text of the source: active = survival mostly below about 52% (no sharp cut-off); inactive = mostly above about 56%. This is one part of the list.
# Test system: Wild type
# Experiment: growth inhibition of S. aureus wild type versus tarO mutant, primary screen, teichoic acid synthesis inhibitors, RN4220, OD600 (AID 463173)
# Conditions: S. aureus RN4220 wild type/DeltatarO growth, OD600, 18 h, active compounds read low, screened at 18.75 µg/mL (by protocol)
row,SMILES,survival
1,O=C(NC1CCCC1)c1cc(-c2ccccc2)on1,inactive: 121%
2,CC(=O)N1CCN(c2ccccc2N)CC1,inactive: 93%
3,COc1ccc(C(=O)Nc2nnc(S(=O)(=O)N3CCC(C)CC3)s2)cc1OC,inactive: 85%
4,O=C(c1cccc(F)c1)N1CCC(c2c[nH]c3ccccc23)(c2c[nH]c3ccccc23)CC1,inactive: 63%
5,CCOc1ccc(NC(=O)NCCn2nnc3cc(S(=O)(=O)N(C)C)ccc32)cc1,inactive: 76%
6,CC(C)(C)c1ccc(-c2nc(S(=O)(=O)c3ccccc3)c(N3CCOCC3)o2)cc1,inactive: 33%
7,O=C(NCC1CCCO1)c1c[nH]c2ccc(S(=O)(=O)Nc3ccc(F)cc3F)cc2c1=O (stereo not given),inactive: 83%
8,Cc1ccc(CNC(=O)c2sc3nc(-c4ccc(F)cc4)ccc3c2N)cc1,inactive: 109%
9,CCOC(=O)C1=C(CN2CCCCC2)NC(=O)NC1c1ccc(C)cc1 (stereo not given),inactive: 77%
10,COc1cccc(CNS(=O)(=O)c2ccc(N3CCCCS3(=O)=O)cc2)c1,inactive: 77%
11,CC1CCCCN1Cc1c(O)ccc2c(=O)c(-c3ccccc3)coc12 (stereo not given),inactive: 69%
12,Cn1c(CNc2nc(-c3ccccc3)cs2)nnc1SCC(=O)OC1CCCCC1,inactive: 109%
13,CCOc1ccc(C(CC(=O)Nc2cc(C)c(Cl)cc2OC)N2Cc3ccccc3C2=O)cc1OC (stereo not given),inactive: 65%
14,CSc1nc(C)c(Oc2ccccc2)c(=O)n1C,inactive: 98%
15,COc1ccc(C2CC(=O)c3c([nH]c(C(=O)OC4CCCCCC4)c3C)C2)cc1OC (stereo not given),inactive: 78%
16,COc1cccc(CNC(=O)CCCn2nc(C)n3c(cc4sccc43)c2=O)c1,inactive: 79%
17,O=C(NC12CC3CC(CC(C3)C1)C2)N1CC2Cc3cccc(=O)n3C(C2)C1 (stereo not given),inactive: 94%
18,COc1ccc(-n2nnc(-c3nc(-c4ccccc4C)no3)c2N)cc1Cl,inactive: 93%
19,COC(=O)c1ccccc1NC(=O)CCc1c(C)nc2c(c(C)nn2-c2ccccc2)c1C,inactive: 117%
20,COc1ccc(-c2cc(C(=O)N3CCN(c4ccc(F)cc4)CC3)no2)cc1OC,inactive: 72%
21,O=C(O)c1ccc(-c2nc3ccccc3[nH]2)cc1,inactive: 106%
22,COc1ccc(Cn2ccc3nc(C)c(C(=O)NCc4ccc(OC)cc4OC)cc3c2=O)cc1,inactive: 19%
23,O=C(NCc1ccccc1)C(c1ccco1)N(C(=O)c1csnn1)c1ccccc1 (stereo not given),inactive: 101%

row,SMILES,survival
1,CCN(C(=O)c1nn(-c2ccc(C)cc2)c(=O)c2c1c1ccccc1n2C)c1ccc(F)cc1,inactive: 96%
2,O=c1[nH]c(CSc2ncc(-c3ccc(F)cc3)n2Cc2ccco2)nc2ccccc12,inactive: 102%
3,O=C(Nc1nnc(S(=O)(=O)N2CCCC2)s1)c1ccccc1F,inactive: 51%
4,Cc1cccc(OCC(=O)N(Cc2ccc(C(C)C)cc2)Cc2ccco2)c1C,inactive: 62%
5,Cc1ccc(N2CC(NC(=O)c3ccco3)CC2=O)cc1C (stereo not given),inactive: 95%
6,CC(C)COc1ccc(-c2nonc2NC(=O)c2ccc(F)cc2)cc1,inactive: 93%
7,O=C(NCCc1ccccc1)c1ccc(CSc2nc3ccncc3n2Cc2ccccc2F)cc1,inactive: 97%
8,CCNc1nc(NC(C)C)nc(OCCNC(=O)COc2ccc(Cl)cc2C)n1,inactive: 107%
9,CCOC(=O)c1cc(-c2ccc(F)cc2)n(CCC(=O)NCc2ccccc2OC)c1C,inactive: 64%
10,COc1ccc(NC(=O)C(C)n2c(C)c3cnn(-c4ccccc4)c(=O)c3c2C)cc1Cl (stereo not given),inactive: 84%
11,O=C(Cn1ncc2c([nH]c3ccccc32)c1=O)NCc1cccc(Cl)c1,active: -3%
12,CCOC(=O)c1cnc2c(C)cc(Cl)cc2c1NCCc1ccc(OC)c(OC)c1,inactive: 48%
13,COc1ccc(C(=O)NNc2ncnc3c2cnn3-c2ccccc2)cc1,inactive: 79%
14,CCOC(=O)C1CCCN(Cc2cn3c(-c4ccc(Br)cc4)nnc3s2)C1 (stereo not given),inactive: 68%
15,CCOc1ccc(NC(=O)Cc2ccc(-n3c(C)nc4cccnc43)cc2)cc1,inactive: 143%
16,COc1ccc(NC(=O)C(=O)NCC(c2cccnc2)N2CCc3ccccc3C2)cc1 (stereo not given),inactive: 83%
17,O=C(CC1N=C2c3ccccc3N=C(SCc3ccccc3Cl)N2C1=O)NCc1cccs1 (stereo not given),inactive: 65%
18,CC(=O)N1CCC(N(Cc2ccco2)C(=O)Nc2ccc(Br)cc2F)CC1,inactive: 136%
19,CCN(CC)CCNC(=O)c1[nH]c2ccccc2c1Sc1ccc(Cl)cc1,inactive: 42%
20,O=C(Nc1cc(Cl)ccc1Cl)c1cc(S(=O)(=O)N2CCCc3ccccc32)ccc1F,inactive: 78%
21,Cc1ccc(NC(=O)CN2C(=O)c3ccccc3Sc3ccc(C(=O)N4CCCC4)cc32)cc1,inactive: 64%
22,COc1ccc(NC(=O)C(NC(=O)/C=C\c2ccc3c(c2)OCO3)c2ccc(OC)cc2)cc1 (stereo not given),inactive: 79%
